# Laboratory results from paper PMC7819943, “Rice protein-binding microarrays: a tool to detect cis-acting elements near promoter regions in rice”.
# This is one part of the list.
# Molecular target: T1, OsWOX13 (Oryza sativa, UniProt Q5QMM3 1-267)
# T1 sequence: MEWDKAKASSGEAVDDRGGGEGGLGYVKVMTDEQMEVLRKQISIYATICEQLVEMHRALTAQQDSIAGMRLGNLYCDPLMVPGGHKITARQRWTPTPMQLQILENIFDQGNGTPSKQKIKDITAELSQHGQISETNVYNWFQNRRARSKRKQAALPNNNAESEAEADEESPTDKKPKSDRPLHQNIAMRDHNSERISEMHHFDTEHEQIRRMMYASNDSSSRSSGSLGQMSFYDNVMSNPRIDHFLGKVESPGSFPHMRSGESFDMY
# Experiment: protein-binding microarray (RPBM); PBS, 2% BSA, 51.3 ng/ul salmon testes DNA, 50 uM zinc acetate, 200 nM TF, 25 C, 1 h; high values mean tight binding
# Settings: protein: recombinant; tags: N-terminal polyhistidine and DsRed monomer fusion (pET32a); label: CyDye5-dUTP incorporated in the synthesized complementary strand; 3' TTTTT single-stranded linker to array surface; dsDNA, one strand shown
# Method in brief: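 The binding signal for each feature is its fluorescence intensity in arbitrary units. An Axon 4000B scanner was used to read a custom Agilent array that had been made double-stranded with Cy5-dUTP primer extension, blocked with 2% BSA, incubated at 25 °C for 1 h with 200 nM protein in PBS, 2% BSA, salmon testes DNA and 50 µM zinc acetate, and washed. The protein was an N-terminal polyhistidine–DsRed transcription factor fusion from E. coli BL21-CodonPlus, purified on Ni–NTA.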
row,Sequence,binding signal
1,ATTTAATTTATTATTAAATATACTTTTAGCATGACTTATTCGGAGTCACCTAGTGCAG,17000 fluorescence intensity (a.u.)
2,ATGTGTTGATTTGTGTGTATGACTCAGCTTACTACTACATCGGAGTCACCTAGTGCAG,19400 fluorescence intensity (a.u.)
3,AGATCTAATTTACACTGGTTTTAATAGTTGATGGATGCGACGGAGTCACCTAGTGCAG,9620 fluorescence intensity (a.u.)
4,TTTATAATTGACTCCAAACCAAATACAACTTGTTTGTTCTCGGAGTCACCTAGTGCAG,33500 fluorescence intensity (a.u.)
5,TTCAACTTTGCATTTTCTGATTAGCACAACTGCGTTTCTTCGGAGTCACCTAGTGCAG,3920 fluorescence intensity (a.u.)
6,AACAATTAGATAGGCTACCCCAAATATTGTACTGGTGTGACGGAGTCACCTAGTGCAG,6050 fluorescence intensity (a.u.)
7,GAGGGGATGTGTCAATTTGGGACCTAAATGATACACTTTGCGGAGTCACCTAGTGCAG,7440 fluorescence intensity (a.u.)
8,TGCTTTGATTTTACGTCACATACACATGGTGATGCTTCAACGGAGTCACCTAGTGCAG,6250 fluorescence intensity (a.u.)
9,GATAACGGAAATCAATCAACCGCTCCCTCGCTCACGGGTGCGGAGTCACCTAGTGCAG,22000 fluorescence intensity (a.u.)
10,ATCCTAATTCCTCAAATTATCCACTATCCGGGATTGTCACCGGAGTCACCTAGTGCAG,13700 fluorescence intensity (a.u.)
11,GTCTAACTATATTGCAATTGATATAACTGCAAAATGTCCTCGGAGTCACCTAGTGCAG,19900 fluorescence intensity (a.u.)
12,TTGTTGATTTGTACCCAGTGATACAAGGCTAATTAAACTTCGGAGTCACCTAGTGCAG,20700 fluorescence intensity (a.u.)
13,GACTCTATCTAGAAATTAAATTTAATCAACACATGTAAGTCGGAGTCACCTAGTGCAG,12800 fluorescence intensity (a.u.)
14,CACTGACAGGTAGCTAGCATTATTTCAGATGATATATTCCCGGAGTCACCTAGTGCAG,8350 fluorescence intensity (a.u.)
15,GCTATAGATAAATTGAAGCTAGTAGTTGGCCATACTGTTGCGGAGTCACCTAGTGCAG,9790 fluorescence intensity (a.u.)
16,CCATTGATTATAATTAAAGACTGTTAGGCAATTGACACAACGGAGTCACCTAGTGCAG,54000 fluorescence intensity (a.u.)
17,AGATAAATATTTTATAAATTATTTATAGTCAAAGATTTGACGGAGTCACCTAGTGCAG,8270 fluorescence intensity (a.u.)
18,GGTAATAAACTAAATGTATCCATATGTTTATCAATTTTACCGGAGTCACCTAGTGCAG,4260 fluorescence intensity (a.u.)
19,TAGGCTCAATCATTCAATCGATTCACTATAGTGAGTTAGTCGGAGTCACCTAGTGCAG,11900 fluorescence intensity (a.u.)
20,TGGTATGATTTATTTTGGCTACAGTCTAAACAGACCCGAACGGAGTCACCTAGTGCAG,9110 fluorescence intensity (a.u.)
21,ATTATTATAAATTATTTCCTCCGTTTCACAATGTAAGTCACGGAGTCACCTAGTGCAG,5530 fluorescence intensity (a.u.)

row,Sequence,binding signal
1,ATATCTGTCACATTTTGTTCTCTGAAATTAACCTGAATATCGGAGTCACCTAGTGCAG,3340 fluorescence intensity (a.u.)
2,CCGCACAAATTAAGTTAAGTAGTTGACAACTAAGTCAAGACGGAGTCACCTAGTGCAG,7560 fluorescence intensity (a.u.)
3,TAGCTGATTAATTGATTATAACCCATAATAATAAATTATACGGAGTCACCTAGTGCAG,19400 fluorescence intensity (a.u.)
4,CCTCGCAATTAATAAGATCCGTAAACATCATCTTCACCGGCGGAGTCACCTAGTGCAG,4160 fluorescence intensity (a.u.)
5,CACACTATTGATATATAATTTCTCATGTTATATACACATTCGGAGTCACCTAGTGCAG,7540 fluorescence intensity (a.u.)
6,GTTCTTCATTGACAGATGCAAGGCTCCACCAGTCCACCTCCGGAGTCACCTAGTGCAG,6170 fluorescence intensity (a.u.)
7,AAATAAATTAACTATTATACATGACTCTGGACAAATACATCGGAGTCACCTAGTGCAG,28500 fluorescence intensity (a.u.)
8,TAGCAAATCATAATTTCTACCGTGACGGGCGACGACACTACGGAGTCACCTAGTGCAG,13500 fluorescence intensity (a.u.)
9,AATAGATCACCCCTAATTACAATAGAGTACTGTAAAAGGGCGGAGTCACCTAGTGCAG,7320 fluorescence intensity (a.u.)
10,CCGGATTGCTGGATCATTTTCTTCTCGGCCCATTGGACTCCGGAGTCACCTAGTGCAG,3410 fluorescence intensity (a.u.)
11,TTTTAAATATCCAAAATTGATTTTGGATAACTACTCGACACGGAGTCACCTAGTGCAG,17200 fluorescence intensity (a.u.)
12,GCTCTGACTGTCTGATACATCATTTGCGAGCTGAGAGAAACGGAGTCACCTAGTGCAG,4530 fluorescence intensity (a.u.)
13,ACTCCATTATTGATTCTTGCAAGGAGGAAGAGCAGCTAGACGGAGTCACCTAGTGCAG,6420 fluorescence intensity (a.u.)
14,GTGTAATTTATGAAACTTACACTGTAACTTTTGTAAGTTACGGAGTCACCTAGTGCAG,18100 fluorescence intensity (a.u.)
15,ACGATTCCCAATCAAAGCCCCAAACAACCATCATGCACAACGGAGTCACCTAGTGCAG,5890 fluorescence intensity (a.u.)
16,AAGAGAAAGTGGTAATTAGCGGGAACTATTCAAAGCTCTCCGGAGTCACCTAGTGCAG,5320 fluorescence intensity (a.u.)
17,ATTTGGATTGAAGCCAAAATTTGCCCATAAGAGATAAGTTCGGAGTCACCTAGTGCAG,7690 fluorescence intensity (a.u.)
18,CAGAAACCTCGCGAATTGATTGCTCCAGCTTATGATTGCCCGGAGTCACCTAGTGCAG,19800 fluorescence intensity (a.u.)
19,CTTCACTCAATAACAAATTATACCCACACACATACCCATCCGGAGTCACCTAGTGCAG,5440 fluorescence intensity (a.u.)
20,TCTGATTAATTTGACGGCCACAAAATACTTAGTTTGGCAACGGAGTCACCTAGTGCAG,65000 fluorescence intensity (a.u.)
21,CTTAATTTGTTGCTGTTCTGTTTAGGGGATAGGTTAGTCCCGGAGTCACCTAGTGCAG,33800 fluorescence intensity (a.u.)
